Assay results reported in the supplement of paper PMC10670038.
Structures can show the parent of a compound that is named as a salt. ± gives the standard deviation of the averaged measurements. The full ranking holds about 2,000 compounds; the median of “relative cell viability vs DMSO, compound + 0.2 uM CuET” is about 1, and the lowest 2% start at about 0.25. Some of the results follow.

What follows are compounds tested on TE10 (assay: relative cell viability vs DMSO, compound + 0.2 uM CuET (fraction); TE10 is an esophageal squamous carcinoma line; higher = less cytotoxic). Settings: 2 µM; co-treatment: CuET (bis(diethyldithiocarbamate)copper) 0.2 uM; 48 h.
Procedure: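 TE10 ESCC cells (1,000/well, 384-well plates) were treated with Selleck bioactive library compounds at 2 uM combined with 0.2 uM CuET (copper diethyldithiocarbamate) for 48 h. Viability was read by CellTiter-Glo and expressed relative to DMSO wells. Two technical replicates (A, B).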

Row | Compound | relative cell viability
1 | COc1cc(NS(=O)(=O)c2ccc(N)cc2)nc(OC)n1 [Sulphadimethoxine] | 1.14 ± 0.038
2 | CCNc1nc(Nc2cc(F)c(C(=O)N3CCOCC3)cc2OC)ncc1C(F)(F)F | 1.15 ± 0.28
3 | O=C1N=C(O)NC1(c1ccccc1)c1ccccc1 [Phenytoin sodium] | 0.961 ± 0.045
4 | COc1ccc(OC)c(C2C(C#N)=C(N)Oc3n[nH]c(-c4ccc5ccccc5c4)c32)c1 (configuration not stated) | 1.06 ± 0.048
5 | Cc1ccc(Cl)cc1N(CC(=O)Nc1c(F)cccc1F)S(C)(=O)=O | 1.17 ± 0.055
6 | NS(=O)(=O)c1ccc(NC(=O)Nc2ccc(F)cc2)cc1 | 1.2 ± 0.12
7 | S=c1[nH]cnc2nc[nH]c12 [Mercaptopurine (6-MP)] | 0.915 ± 0.12
8 | CN(Cc1ccc(C(C)(C)C)cc1)Cc1cccc2ccccc12 [Butenafine HCl] | 1.023 ± 0.0027
9 | CN1CC[C@@H](c2c(O)cc(O)c3c(=O)cc(-c4ccccc4Cl)oc23)[C@@H]1CO | 0.7 ± 0.044
10 | O=C(NCCCNc1nc(Nc2cccc(NC(=O)N3CCCC3)c2)ncc1I)c1cccs1 | 1.06 ± 0.21
11 | Cc1cccc(-c2[nH]ncc2-c2ccc3ncccc3n2)n1 | 1.04 ± 0.0027
12 | CC(C)n1cnc2c(NCCc3ccc(O)cc3)nc(-c3csc4ccccc34)nc21 [StemRegenin 1 (SR1)] | 1.26 ± 0.12
13 | Cc1nc2c(O)cccc2c(=O)[nH]1 | 1.34 ± 0.054
14 | O=C(NNc1ccccc1)c1ccncc1 | 1.06 ± 0.18
15 | Cc1cc(C#N)cc(C)c1Oc1nc(Nc2ccc(C#N)cc2)nc(N)c1Br [Etravirine (TMC125)] | 0.862 ± 0.023
16 | Cn1cncc1[C@@](N)(c1ccc(Cl)cc1)c1ccc2c(c1)c(-c1cccc(Cl)c1)cc(=O)n2C [Tipifarnib] | 0.888 ± 0.059
17 | O=c1[nH]c(=O)n([C@H]2C[C@H](O)[C@@H](CO)O2)cc1C(F)(F)F [Trifluridine] | 1.08 ± 0.047
18 | Cc1cc(F)c(Nc2ncnc3cc(OCc4ccccc4)ccc23)cc1O | 0.92533 ± 0.00026
19 | N#CC(=Cc1ccc(-c2cc(Cl)ccc2Cl)o1)C(=O)Nc1cccc2ncccc12 | 1.06 ± 0.03
20 | CCCC(=O)Nc1cccc(NC(=O)c2ccccc2Br)c1 | 1.01 ± 0.16
21 | CO[C@H]1C[C@@H]2CC[C@@H](C)[C@@](O)(O2)C(=O)C(=O)N2CCCC[C@H]2C(=O)O[C@H]([C@H](C)C[C@@H]2CC[C@H](n3cnnn3)[C@H](OC)C2)CC(=O)[C@H](C)/C=C(\C)[C@@H](O)[C@@H](OC)C(=O)[C@H](C)C[C@H](C)/C=C/C=C/C=C/1C [Zotarolimus(ABT-578)] | 0.902 ± 0.034

Row | Compound | relative cell viability
22 | COc1cc2ncnc(Nc3ccc(O)c(Br)c3)c2cc1OC | 1.15 ± 0.18
23 | O=C(O)c1ccc(O)c2ncccc12 | 1.06 ± 0.14
24 | COc1cc(-c2cc(-c3cccc(O)c3)cnc2N)cc(OC)c1OC | 1.32 ± 0.091
25 | Nc1nc(=O)[nH]cc1F [Flucytosine] | 1.15 ± 0.052
26 | O=C(NC1CC1)c1cc(-c2cccs2)on1 [Isoxazole 9 (ISX-9)] | 1.1 ± 0.19
27 | Oc1cc(O)cc(/C=C/c2ccc(O)c(O)c2)c1 [Piceatannol] | 1.02 ± 0.094
28 | Cc1cc(Nc2cc(CN3CCOCC3)c3nc(C)c(Cc4ccc(Cl)cc4F)n3n2)n[nH]1 | 0.92 ± 0.046
29 | Brc1ccc(C2CN3CCSC3=N2)cc1 (single isomer, unassigned; (-)) [(-)-p-Bromotetramisole Oxalate] | 1.33 ± 0.11
30 | Nc1nnc(-c2cccc(Cl)c2Cl)c(N)n1 [Lamotrigine] | 1.01 ± 0.039
31 | CC[C@@]1(O)C(=O)OCc2c1cc1n(c2=O)Cc2cc3c(CN(C)C)c(O)ccc3nc2-1 [Topotecan HCl] | 0.322 ± 0.15
32 | CN(C)C(=O)c1cc2cnc(Nc3ccc(N4CCNCC4)cn3)nc2n1C1CCCC1 | 1.23 ± 0.11
33 | C=C1[C@H](CO)[C@@H](O)C[C@@H]1n1cnc2c(=O)[nH]c(N)nc21 [Entecavir Hydrate] | 1.6 ± 0.13
34 | CC(=O)O[C@]1(C(C)=O)CC[C@H]2[C@@H]3C=C(C)C4=CC(=O)CC[C@]4(C)[C@H]3CC[C@@]21C [Megestrol Acetate] | 1.21 ± 0.17
35 | CN1CCN(c2ccc(Nc3cc(-c4cccc(-n5ccc6cc(C7CC7)cc(F)c6c5=O)c4CO)cn(C)c3=O)nc2)CC1 | 0.978 ± 0.068
36 | COc1ccc2c(c1)c(CC(=O)OCC(=O)O)c(C)n2C(=O)c1ccc(Cl)cc1 [Acemetacin] | 1.26 ± 0.2
37 | Cc1nccn1CC1CCc2c(c3ccccc3n2C)C1=O (configuration not stated) [Ondansetron HCl] | 1.29 ± 0.12
38 | CC(=O)NC[C@H]1CN(c2ccc(N3CCOCC3)c(F)c2)C(=O)O1 [Linezolid] | 1.52 ± 0.027
39 | Cn1sc(=O)n(Cc2ccccc2)c1=O | 0.444 ± 0.021
40 | COc1ccc2cc3[n+](cc2c1OC)CCc1cc2c(cc1-3)OCO2 [Berberine HCl] | 1.12 ± 0.015
41 | COc1cc2c(cc1Cc1cccc(Cl)c1F)c(=O)c(C(=O)O)cn2[C@H](CO)C(C)C [Elvitegravir (GS-9137, JTK-303)] | 0.941 ± 0.05
42 | CC(C)(C)OC(=O)Nc1ccc(-c2cc(C(=O)NCCCCCCC(=O)NO)no2)cc1 | 0.244 ± 0.003
